Some of these densities may be calculated back from excess volumes.
Assay: xn = mol fraction of the nth substance listed
Details: 101 kPa

CC(=O)[O-].CC[n+]1ccn(C)c1 + CC(=O)[O-].[NH4+]
x2 = 0
Details | mass density [kg/m3]
298.15 K | 1098.3
303.15 K | 1095.2
308.15 K | 1092.4
313.15 K | 1089.4
318.15 K | 1086.4

CC(=O)[O-].CC[n+]1ccn(C)c1 + N#C[S-].[Na+]
x2 = 0
Details | mass density [kg/m3]
298.15 K | 1098.3
308.15 K | 1092.4
318.15 K | 1086.4
323.15 K | 1083.4

CC(=O)[O-].[Na+] + CC(=O)[O-].CC[n+]1ccn(C)c1
mass density [kg/m3]
Details | 298.15 K | 303.15 K | 308.15 K | 313.15 K | 318.15 K | 323.15 K
x1 = 0.0501 | 1104.5 | 1101.4 | 1098.3 | 1095.5 | 1092.5 | 1089.4
x1 = 0.1001 | 1111.2 | – | 1105 | 1102.1 | 1099.1 | 1096.1
x1 = 0.1605 | 1119.6 | 1116.4 | 1113.3 | 1110.2 | 1107.2 | 1104.1

[Cl-].[NH4+] + CC(=O)[O-].CC[n+]1ccn(C)c1
mass density [kg/m3]
Details | 298.15 K | 303.15 K | 308.15 K | 313.15 K | 318.15 K | 323.15 K
x1 = 0.0505 | – | – | 1095.1 | 1092 | – | –
x1 = 0.0999 | 1104 | 1100.8 | 1097.8 | – | 1091.7 | 1088.7
x1 = 0.1702 | 1108.3 | 1105.2 | 1102 | – | 1095.8 | 1092.7
x1 = 0.25 | 1113.4 | 1110.2 | 1107.1 | 1104 | 1100.8 | 1097.7
x1 = 0.3297 | 1118.4 | 1115.3 | 1112.2 | 1109 | 1105.9 | 1102.8

CC(=O)[O-].CC[n+]1ccn(C)c1 + CC(=O)[O-].[Na+]
x2 = 0
Details | mass density [kg/m3]
298.15 K | 1098.3
303.15 K | 1095.2
308.15 K | 1092.4
313.15 K | 1089.4
318.15 K | 1086.4
323.15 K | 1083.4

CC(=O)[O-].[NH4+] + CC(=O)[O-].CC[n+]1ccn(C)c1
mass density [kg/m3]
Details | 298.15 K | 303.15 K | 308.15 K | 313.15 K | 318.15 K | 323.15 K
x1 = 0.0503 | 1098.3 | 1095.2 | 1092.1 | 1089.1 | 1086 | 1082.9
x1 = 0.0999 | 1099.1 | 1096 | 1092.9 | – | 1086.7 | 1083.5
x1 = 0.1703 | 1100.1 | 1097 | 1093.9 | – | 1087.6 | 1084.5
x1 = 0.2498 | 1100.9 | 1097.7 | 1094.6 | 1091.5 | – | 1085.2
x1 = 0.328 | 1101.5 | 1098.3 | – | – | – | 1085.7
x1 = 0.4491 | – | 1098.9 | – | 1092.4 | 1089.2 | 1086.2

N#C[S-].[Na+] + CC(=O)[O-].CC[n+]1ccn(C)c1
x1 = 0.0502
Details | mass density [kg/m3]
298.15 K | 1105.7
303.15 K | 1102.6
308.15 K | 1099.5
313.15 K | 1096.5
318.15 K | 1093.5
323.15 K | 1090.4

CC(=O)[O-].CC[n+]1ccn(C)c1 + CCS(=O)(=O)[O-].[NH4+]
x2 = 0
Details | mass density [kg/m3]
298.15 K | 1098.3
308.15 K | 1092.4
313.15 K | 1089.4
323.15 K | 1083.4

CCS(=O)(=O)[O-].[NH4+] + CC(=O)[O-].CC[n+]1ccn(C)c1
mass density [kg/m3]
Details | 298.15 K | 303.15 K | 308.15 K | 313.15 K | 318.15 K | 323.15 K
x1 = 0.05 | 1105 | 1101.8 | 1098.7 | 1095.6 | – | 1089.4
x1 = 0.0999 | 1113.7 | 1110.5 | 1107.3 | 1104.2 | 1101 | –
x1 = 0.1701 | 1124.1 | 1120.8 | 1117.6 | – | 1111.2 | –

CC(=O)[O-].CC[n+]1ccn(C)c1 + [Cl-].[NH4+]
x2 = 0
Details | mass density [kg/m3]
298.15 K | 1098.3
303.15 K | 1095.2
313.15 K | 1089.4
323.15 K | 1083.4

Source: a compilation of properties of binary mixtures (doi:10.1021/je5008857)
